Test results as given in the supplement of paper PMC8728848.
This is one part of the list.

Tests used:
Experiment in all cases: glycan array binding signal (z-score within array); higher = stronger binding
Conditions in all cases: glycan notation: IUPAC condensed, linker removed
[1] = biological target: Gal(b1-4)GlcNAc(b1-2)[Gal(b1-4)GlcNAc(b1-4)]Man(a1-3)[GlcNAc(b1-4)][Gal(b1-4)GlcNAc(b1-2)Man(a1-6)]Man(b1-4)GlcNAc(b1-4)GlcNAc
Procedure, shortened: (§1)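 The Consortium for Functional Glycomics database supplied 3228 glycan arrays, of which those lacking an available protein sequence were dropped. The binding signal, a within-array Z-score, was averaged across arrays of the same protein sequence and across linkers. Negative scores can be read as non-binding.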

[2] = biological target: Gal(b1-4)GlcNAc(b1-2)[Gal(b1-4)GlcNAc(b1-4)]Man(a1-3)[GlcNAc(b1-4)][Gal(b1-4)GlcNAc(b1-2)[Gal(b1-4)GlcNAc(b1-6)]Man(a1-6)]Man(b1-4)GlcNAc(b1-4)GlcNAc
Procedure, shortened: as §1

[3] = biological target: Gal(b1-4)GlcNAc(b1-2)[Gal(b1-4)GlcNAc(b1-6)]Man(a1-6)[Gal(b1-4)GlcNAc(b1-2)Man(a1-3)]Man(b1-4)GlcNAc(b1-4)GlcNAc
Procedure, shortened: as §1

[4] = biological target: Gal(b1-4)GlcNAc(b1-2)[Gal(b1-4)GlcNAc(b1-6)]Man(a1-6)[Gal(b1-4)GlcNAc(b1-2)Man(a1-3)]Man(b1-4)GlcNAc(b1-4)[Fuc(a1-6)]GlcNAc
Procedure, shortened: as §1

[5] = biological target: Gal(b1-4)GlcNAc(b1-2)[Gal(b1-4)GlcNAc(b1-6)]Man(a1-6)[GlcNAc(b1-4)][Gal(b1-4)GlcNAc(b1-2)Man(a1-3)]Man(b1-4)GlcNAc(b1-4)GlcNAc
Procedure, shortened: as §1

[6] = biological target: Gal(b1-4)GlcNAc(b1-2)[Gal(b1-4)GlcNAc(b1-6)]Man(a1-6)[GlcNAc(b1-4)][Gal(b1-4)GlcNAc(b1-2)[Gal(b1-4)GlcNAc(b1-4)]Man(a1-3)]Man(b1-4)GlcNAc(b1-4)[Fuc(a1-6)]GlcNAc
Procedure, shortened: as §1

[7] = biological target: Gal(b1-4)GlcNAc(b1-3)Gal(b1-3)GalNAc
Procedure, shortened: as §1

[8] = biological target: Gal(b1-4)GlcNAc(b1-3)Gal(b1-3)GlcNAc
Procedure, shortened: as §1

[9] = biological target: Gal(b1-4)GlcNAc(b1-3)Gal(b1-4)Glc
Procedure, shortened: as §1

[10] = biological target: Gal(b1-4)GlcNAc(b1-3)Gal(b1-4)GlcNAc
Procedure, shortened: as §1

[11] = biological target: Gal(b1-4)GlcNAc(b1-3)Gal(b1-4)GlcNAc(b1-2)Man(a1-3)[Gal(b1-4)GlcNAc(b1-3)Gal(b1-4)GlcNAc(b1-2)Man(a1-6)]Man(b1-4)GlcNAc(b1-4)GlcNAc
Procedure, shortened: as §1

[12] = biological target: Gal(b1-4)GlcNAc(b1-3)Gal(b1-4)GlcNAc(b1-2)Man(a1-3)[Gal(b1-4)GlcNAc(b1-3)Gal(b1-4)GlcNAc(b1-2)Man(a1-6)]Man(b1-4)GlcNAc(b1-4)[Fuc(a1-6)]GlcNAc
Procedure, shortened: as §1

[13] = biological target: Gal(b1-4)GlcNAc(b1-3)Gal(b1-4)GlcNAc(b1-2)[Gal(b1-4)GlcNAc(b1-3)Gal(b1-4)GlcNAc(b1-6)]Man(a1-6)[Gal(b1-4)GlcNAc(b1-3)Gal(b1-4)GlcNAc(b1-2)Man(a1-3)]Man(b1-4)GlcNAc(b1-4)GlcNAc
Procedure, shortened: as §1

[14] = biological target: Gal(b1-4)GlcNAc(b1-3)Gal(b1-4)GlcNAc(b1-2)[Gal(b1-4)GlcNAc(b1-3)Gal(b1-4)GlcNAc(b1-6)]Man(a1-6)[Gal(b1-4)GlcNAc(b1-3)Gal(b1-4)GlcNAc(b1-2)Man(a1-3)]Man(b1-4)GlcNAc(b1-4)[Fuc(a1-6)]GlcNAc
Procedure, shortened: as §1

[15] = biological target: Gal(b1-4)GlcNAc(b1-3)Gal(b1-4)GlcNAc(b1-3)Gal(b1-4)GlcNAc
Procedure, shortened: as §1

[16] = biological target: Gal(b1-4)GlcNAc(b1-3)Gal(b1-4)GlcNAc(b1-3)Gal(b1-4)GlcNAc(b1-2)Man(a1-3)[Gal(b1-4)GlcNAc(b1-3)Gal(b1-4)GlcNAc(b1-3)Gal(b1-4)GlcNAc(b1-2)Man(a1-6)]Man(b1-4)GlcNAc(b1-4)GlcNAc
Procedure, shortened: as §1

[17] = biological target: Gal(b1-4)GlcNAc(b1-3)Gal(b1-4)GlcNAc(b1-3)Gal(b1-4)GlcNAc(b1-2)Man(a1-3)[Gal(b1-4)GlcNAc(b1-3)Gal(b1-4)GlcNAc(b1-3)Gal(b1-4)GlcNAc(b1-2)Man(a1-6)]Man(b1-4)GlcNAc(b1-4)[Fuc(a1-6)]GlcNAc
Procedure, shortened: as §1

[18] = biological target: Gal(b1-4)GlcNAc(b1-3)Gal(b1-4)GlcNAc(b1-3)Gal(b1-4)GlcNAc(b1-2)[Gal(b1-4)GlcNAc(b1-3)Gal(b1-4)GlcNAc(b1-3)Gal(b1-4)GlcNAc(b1-6)]Man(a1-6)[Gal(b1-4)GlcNAc(b1-3)Gal(b1-4)GlcNAc(b1-3)Gal(b1-4)GlcNAc(b1-2)Man(a1-3)]Man(b1-4)GlcNAc(b1-4)[Fuc(a1-6)]GlcNAc
Procedure, shortened: as §1

[19] = biological target: Gal(b1-4)GlcNAc(b1-3)Gal(b1-4)GlcNAc(b1-3)Gal(b1-4)GlcNAc(b1-3)Gal(b1-4)GlcNAc(b1-2)Man(a1-3)[Gal(b1-4)GlcNAc(b1-3)Gal(b1-4)GlcNAc(b1-3)Gal(b1-4)GlcNAc(b1-3)Gal(b1-4)GlcNAc(b1-2)Man(a1-6)]Man(b1-4)GlcNAc(b1-4)GlcNAc
Procedure, shortened: as §1

[20] = biological target: Gal(b1-4)GlcNAc(b1-3)Gal(b1-4)GlcNAc(b1-3)Gal(b1-4)GlcNAc(b1-3)Gal(b1-4)GlcNAc(b1-2)Man(a1-3)[Gal(b1-4)GlcNAc(b1-3)Gal(b1-4)GlcNAc(b1-3)Gal(b1-4)GlcNAc(b1-3)Gal(b1-4)GlcNAc(b1-2)Man(a1-6)]Man(b1-4)GlcNAc(b1-4)[Fuc(a1-6)]GlcNAc
Procedure, shortened: as §1

[21] = biological target: Gal(b1-4)GlcNAc(b1-3)Gal(b1-4)GlcNAc(b1-3)Gal(b1-4)GlcNAc(b1-3)Gal(b1-4)GlcNAc(b1-2)[Gal(b1-4)GlcNAc(b1-3)Gal(b1-4)GlcNAc(b1-3)Gal(b1-4)GlcNAc(b1-3)Gal(b1-4)GlcNAc(b1-6)]Man(a1-6)[Gal(b1-4)GlcNAc(b1-3)Gal(b1-4)GlcNAc(b1-3)Gal(b1-4)GlcNAc(b1-3)Gal(b1-4)GlcNAc(b1-2)Man(a1-3)]Man(b1-4)GlcNAc(b1-4)[Fuc(a1-6)]GlcNAc
Procedure, shortened: as §1

[22] = biological target: Gal(b1-4)GlcNAc(b1-3)Gal(b1-4)GlcNAc(b1-3)Gal(b1-4)GlcNAc(b1-3)Gal(b1-4)GlcNAc(b1-3)Gal(b1-4)GlcNAc(b1-2)Man(a1-3)[Gal(b1-4)GlcNAc(b1-3)Gal(b1-4)GlcNAc(b1-3)Gal(b1-4)GlcNAc(b1-3)Gal(b1-4)GlcNAc(b1-3)Gal(b1-4)GlcNAc(b1-2)Man(a1-6)]Man(b1-4)GlcNAc(b1-4)GlcNAc
Procedure, shortened: as §1

[23] = biological target: Gal(b1-4)GlcNAc(b1-3)Gal(b1-4)GlcNAc(b1-3)Gal(b1-4)GlcNAc(b1-3)Gal(b1-4)GlcNAc(b1-3)Gal(b1-4)GlcNAc(b1-2)Man(a1-3)[Gal(b1-4)GlcNAc(b1-3)Gal(b1-4)GlcNAc(b1-3)Gal(b1-4)GlcNAc(b1-3)Gal(b1-4)GlcNAc(b1-3)Gal(b1-4)GlcNAc(b1-2)Man(a1-6)]Man(b1-4)GlcNAc(b1-4)[Fuc(a1-6)]GlcNAc
Procedure, shortened: as §1

B1: Banana lectin (Musa acuminata) (protein)
chain: MNGAIKVGAWGGNGGSAFDMGPAYRIISVKIFSGDVVDGVDVTFTYYGKTETRHYGGSGGTPHEIVLQEGEYLVGMAGEVANYHGAVVLGKLGFSTNKKAYGPFGNTGGTPFSLPIAAGKISGFFGRGGKFLDAIGVYLEPLEHHHHHH
In the case of B1, the “glycan array binding signal (z-score)” value [1] is reported as -0.218, the “glycan array binding signal (z-score)” value [2] is reported as -0.231 and the “glycan array binding signal (z-score)” value [3] is reported as -0.039. The “glycan array binding signal (z-score)” value [4] was -0.171, the “glycan array binding signal (z-score)” value [5] was -0.193 and the “glycan array binding signal (z-score)” value [6] was -0.204. The “glycan array binding signal (z-score)” value [7] was -0.226, the “glycan array binding signal (z-score)” value [8] was -0.219 and the “glycan array binding signal (z-score)” value [9] was -0.22. For the same binder, the “glycan array binding signal (z-score)” value [10] was -0.205, the “glycan array binding signal (z-score)” value [11] was -0.183 and the “glycan array binding signal (z-score)” value [12] was -0.094. For the same binder, the “glycan array binding signal (z-score)” value [13] was -0.099, the “glycan array binding signal (z-score)” value [14] was 0.143 and the “glycan array binding signal (z-score)” value [15] was -0.23. For the same binder, the “glycan array binding signal (z-score)” value [16] was -0.174, the “glycan array binding signal (z-score)” value [17] was -0.149 and the “glycan array binding signal (z-score)” value [18] was -0.13. For the same binder, the “glycan array binding signal (z-score)” value [19] was -0.158, the “glycan array binding signal (z-score)” value [20] was -0.154 and the “glycan array binding signal (z-score)” value [21] was -0.101. For the same binder, the “glycan array binding signal (z-score)” value [22] was -0.167 and the “glycan array binding signal (z-score)” value [23] was -0.202.
